PubChem BioAssay AID504339 (National Center for Advancing Translational Sciences (NCATS), 2011)
Several values for one entry are separate records, joined by “and”; a condition that tells them apart may be missing. Equal values may be shown once. The whole screen tested about 390,000 compounds, of which about 17,000 (4.4%) were called active. The inconclusive results got no clear call from the source; some entries with a clear call stand among them for comparison. Calls come from the whole dose curve; as a rule, active = well fitted inhibition curve with a large enough effect; inconclusive = small, poorly fitted or top-dose-only effect; inactive = no such curve, though single readings can be large or run the other way. Where the call is inconclusive, the potency comes from a doubtful curve fit.

target: Lysine-specific demethylase 4A (Homo sapiens) (UniProt O75164); test: qHTS Assay for Inhibitors of JMJD2A-Tudor Domain; settings: AlphaScreen JMJD2A-Tudor / H3K4me3 peptide binding; activity change, negative = inhibition: at 114 µM (top of the series); note: nearly all actives have a fitted effect of over 50% in size
Sequence of UniProt O75164 (O75164 whole entry, looked up, the tested form may be a part): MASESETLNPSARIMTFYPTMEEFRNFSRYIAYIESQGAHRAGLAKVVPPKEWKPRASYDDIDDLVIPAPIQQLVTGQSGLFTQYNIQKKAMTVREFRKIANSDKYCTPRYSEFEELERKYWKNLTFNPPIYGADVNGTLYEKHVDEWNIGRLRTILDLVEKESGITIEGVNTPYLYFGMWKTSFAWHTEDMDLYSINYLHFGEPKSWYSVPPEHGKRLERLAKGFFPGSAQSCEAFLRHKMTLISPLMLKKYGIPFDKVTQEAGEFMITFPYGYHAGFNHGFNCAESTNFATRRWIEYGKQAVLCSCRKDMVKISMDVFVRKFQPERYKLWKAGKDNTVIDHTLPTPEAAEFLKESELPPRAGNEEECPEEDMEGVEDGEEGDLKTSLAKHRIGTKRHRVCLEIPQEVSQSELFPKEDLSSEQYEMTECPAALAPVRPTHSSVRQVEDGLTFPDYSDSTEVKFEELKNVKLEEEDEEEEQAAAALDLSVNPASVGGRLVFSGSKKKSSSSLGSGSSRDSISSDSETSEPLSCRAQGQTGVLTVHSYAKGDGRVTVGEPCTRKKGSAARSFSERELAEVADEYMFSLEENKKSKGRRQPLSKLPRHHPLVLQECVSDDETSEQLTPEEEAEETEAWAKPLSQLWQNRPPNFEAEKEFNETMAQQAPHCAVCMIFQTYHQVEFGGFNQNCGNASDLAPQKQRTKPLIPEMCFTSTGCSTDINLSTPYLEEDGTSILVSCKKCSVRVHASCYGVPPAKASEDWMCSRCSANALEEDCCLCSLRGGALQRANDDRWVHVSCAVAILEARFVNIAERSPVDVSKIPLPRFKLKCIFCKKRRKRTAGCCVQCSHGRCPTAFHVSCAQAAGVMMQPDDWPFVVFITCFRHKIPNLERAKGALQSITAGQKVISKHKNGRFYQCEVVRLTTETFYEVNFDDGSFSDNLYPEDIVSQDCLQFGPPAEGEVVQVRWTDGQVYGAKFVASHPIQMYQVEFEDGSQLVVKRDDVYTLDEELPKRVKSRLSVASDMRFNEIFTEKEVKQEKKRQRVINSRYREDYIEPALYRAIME
% is set by controls: 0 for no effect and ±100 for the full control effect; potency is the fitted concentration of half-maximal effect; tags give direction and shape of the fitted curve.

Potency, inconclusive:
COc1ccc(/C=N/NS(=O)(=O)c2ccccc2)cc1OC(=O)c1ccc(C)cc1 79.4 µM [inhibitor, partial curve], Cc1ccc(NS(=O)(=O)c2ccc(C(=O)NC3CCN(Cc4ccccc4)CC3)cc2)cc1 89.1 µM [inhibitor, partial curve], Clc1ccc(Cl)c(-c2nn3c(COc4ccccc4)nnc3s2)c1 79.4 µM [inhibitor, partial curve], Cc1ccc(C2/C(=C(/O)c3ccc(Br)cc3)C(=O)C(=O)N2Cc2ccco2)o1 (stereo not given) 79.4 µM [inhibitor, single point], CN1c2ccsc2/C(=N/NC(=O)c2c(F)cccc2F)CS1(=O)=O 89.1 µM [inhibitor, single point], c1ccc2c(Nc3ccc4c(c3)OCCO4)c3c(nc2c1)CCC3 44.7 µM [inhibitor, partial curve], CCc1sc(C(=O)Nc2ccc(N3CCOCC3)cc2)cc1C 56.2 µM [inhibitor, partial curve], O=C1c2ccccc2C(=O)C12Cc1ccccc1N1CCN(c3ccccc3)CC12 (stereo not given) 63.1 µM [inhibitor, partial curve, poor fit], COc1ccc(C2N3CC4(C)CN2CC(c2ccccc2)(C3)C4=O)cc1 (stereo not given) 39.8 µM [inhibitor, single point], COc1cccc(N2C(=O)CC(Nc3ccc(N4CCOCC4)cc3)C2=O)c1 (stereo not given) 50.1 µM [inhibitor, partial curve], COc1cc(O)c2c(=O)c3c(O)ccc(O)c3oc2c1 63.1 µM [inhibitor, partial curve, poor fit], COc1ccc(C2=Nn3c(nnc3-c3ccc(OC)cc3)SC2)cc1 56.2 µM [inhibitor, partial curve], C(=C\c1ccccn1)/c1ccccn1 28.2 µM [inhibitor, single point], CCC1=C(OC(=O)N(CC)CC)N2C(=O)OC(=NCCc3c[nH]c4ccccc34)[C@]2(Cc2ccccc2)[C@H]2C1=CC[C@H]1C(=O)N(C)C(=O)[C@H]12 35.5 µM [inhibitor, partial curve], FC(F)(F)c1cc(CCN2CCNC[C@H]2Cc2cccc3ccccc23)cc(C(F)(F)F)c1 50.1 µM [inhibitor, partial curve], COc1ccc(C(=O)Oc2ccc(C(c3c(C)[nH][nH]c3=O)c3c(C)[nH][nH]c3=O)cc2OC)cc1 79.4 µM [inhibitor, single point], Nc1cccc(B(O)O)c1 89.1 µM [inhibitor, single point], CCC(C(=O)OCCN(CC)CC)c1ccccc1 (stereo not given) 20 µM [inhibitor, partial curve, poor fit], CCOC(=O)c1c(C)[nH]c(C)c1C(=O)COC(=O)[C@@H](NC(=O)c1ccccc1OCC)C(C)C 39.8 µM [inhibitor, partial curve], COCCNc1nc(-c2cc(C)c(C)cc2C)cs1 79.4 µM [inhibitor, single point], CC(=O)C1=C(O)C(=O)N(Cc2ccccc2)C1c1ccc(N(C)C)cc1 (stereo not given) 50.1 µM [inhibitor, partial curve], O=C(O)CN1C(=O)/C(=C\c2ccccc2OCc2ccc(F)cc2)SC1=S 44.7 µM [inhibitor, partial curve], O=C(Nc1nc2ccccc2s1)C1CCN(S(=O)(=O)c2cc([N+](=O)[O-])ccc2Cl)CC1 7.08 µM [inhibitor, full curve], CCc1ccccc1Nc1nn2c(=O)c3ccc(C(=O)NCc4ccccc4Cl)cc3nc2s1 89.1 µM [inhibitor, partial curve], CCN(CC)c1ccc(NC(=O)Cn2c(C(C)NC(=O)c3ccccc3)nc3ccccc32)cc1 (stereo not given) 39.8 µM [inhibitor, single point], COc1cc(/C=C/c2ccc3c([N+](=O)[O-])cccc3n2)ccc1OCC(=O)O 50.1 µM [inhibitor, partial curve], CC/C=C/C(=O)N1CC2(CC(c3cccc(NC(=O)CC(c4ccccc4)c4ccccc4)c3)=NO2)C[C@@H]1C(N)=O (stereo not given in full) 63.1 µM [inhibitor, partial curve, poor fit], O=C(C(=NNc1ccccc1)c1ccccc1)c1ccccc1 25.1 µM [inhibitor, full curve], Cc1ccc([N+](=O)[O-])cc1S(=O)(=O)N1CCn2cccc2C1c1ccc(F)c(F)c1 (stereo not given) 14.1 µM [inhibitor, full curve, poor fit], COC(=O)C1=C(C)Nc2[nH]c(=S)[nH]c(=O)c2C1c1ccc(OC)cc1 (stereo not given) 22.4 µM [inhibitor, partial curve], CCOc1ccc2oc(C(=O)Nc3nccs3)c(C)c2c1 12.6 µM [inhibitor, partial curve], O=C(NCC(=O)N1CCN(S(=O)(=O)c2c(F)cccc2F)CC1)c1ccccc1F 35.5 µM [inhibitor, partial curve], COc1ccc(CN(Cc2ccccc2)C(=O)c2ccccc2N)cc1COc1ccc(NC(C)=O)cc1 56.2 µM [inhibitor, partial curve], CCCCNc1c(-c2ccc(-c3cccc(Cl)c3)cc2)nc2ccccn12 25.1 µM [inhibitor, full curve], CN(C)/C=N/c1nc(-c2ccc3ccccc3c2)cs1 56.2 µM [inhibitor, partial curve], Clc1ccccc1OCc1nnc(-c2ccccc2)o1 44.7 µM [inhibitor, partial curve], Cn1c(=O)[nH]c2c(c(C(=O)O)nn2C)c1=O 35.5 µM [inhibitor, single point], N#CCC(=O)Nc1ccc(C(=O)OCC(=O)N2CCN(C(=O)c3ccco3)CC2)cc1 50.1 µM [inhibitor, partial curve, poor fit], CC(=O)Nc1cc(NC(C)=O)cc(C(=O)NCC2(N3CCOCC3)CCCCC2)c1 35.5 µM [inhibitor, full curve, poor fit], NC(=O)c1sc(=S)n(-c2ccc(Br)cc2)c1N 79.4 µM [inhibitor, partial curve], CC1=C(C(=O)OCc2ccccc2)C(/C=C/c2ccccc2)NC(=S)N1 (stereo not given) 22.4 µM [inhibitor, single point]

Potency, active:
COc1ccccc1C(=O)NCc1n[nH]c(=S)n1Cc1ccccc1 35.5 µM, C/C(CCc1oc2ccccc2c1-c1ccc(C)o1)=N/O 56.2 µM, ON=C1/C(=N\O)CC2(C/C1=N/O)OCCO2 28.2 µM, N#C/C(=C\c1ccc(-c2ccc(C(=O)O)cc2)o1)c1nc2ccccc2[nH]1 56.2 µM and 89.1 µM, Clc1ccc(OCCCNCc2ccccc2)c(Br)c1 10 µM, CC1(C)Cc2noc(N)c2C(C)(C)N1O 31.6 µM, CCc1ccc(CN2CCSCC2)cc1 2.24 µM, Oc1c(Br)cc(/C=N/n2c(-c3ccccc3)n[nH]c2=S)cc1Br 3.16 µM, O=C(O)c1ccc2nc(-c3ccco3)c(-c3ccco3)nc2c1 25.1 µM, Cc1cccc(OCC(O)CN2CCN(c3ccccn3)CC2)c1C (stereo not given) 79.4 µM

Activity change, negative = inhibition, inactive:
COc1ccc(CN(C(=O)Cc2coc3ccc(C)cc23)C2CCS(=O)(=O)C2)cc1 (stereo not given) -32.3%, CCOc1ccccc1/C=N/NC(=O)CSc1n[nH]c(=O)[nH]c1=O -23.1%, COc1ccc(C)cc1S(=O)(=O)NCC(c1ccc2c(c1)OCO2)N1CCOCC1 (stereo not given) -10.3%, c1ccc2sc(N3CCCN(Cc4nc(-c5cnccn5)no4)CC3)nc2c1 -2.76%, O=C(CSc1nnc2c(n1)[nH]c1ccccc12)Nc1cccc(S(=O)(=O)N2CCOCC2)c1 -9.21%, CCc1c(C)nc(N)c(C#N)c1-c1ccccc1 -10.5%, CCCCN(CC)CCCNC(=O)c1cn(CC)c2ccc(S(=O)(=O)N3CCOCC3)cc2c1=O -13.7%, Cc1nnc(C)n1/N=C/c1cc(Br)cc(Br)c1O -23.3%, OCCC1CN(Cc2cccn2-c2ccccn2)CCN1C1CCCCC1 (stereo not given) -5.05%, C=CCN(c1ccccc1)S(=O)(=O)c1ccc2c(c1)N(C(C)=O)CCO2 -17.6%, CC1CC(=O)N(C)c2cc([N+](=O)[O-])ccc2N1 (stereo not given) -28.1%, COc1ccc(OC)c(C(C(=O)NC2CCCCC2)N(C(=O)c2ccccn2)c2cccnc2)c1 (stereo not given) -15.4%, O=C(O)Cn1nnnc1-c1ccc(F)cc1 -12.2%, Clc1ccc(Cc2nn3c(Cn4nnc5ccccc54)nnc3s2)cc1 -13.4%, COc1ccc(S(=O)(=O)NCc2ccc(C(=O)N(C)Cc3ccco3)cc2)cc1 -22%, Cc1cccc(C)c1NC(=O)CCn1cnc2ccccc2c1=O -22%, CC(=O)c1cccc(NC(=O)c2ccc3nc(C(C)C)oc3c2)c1 -13.1%, Cc1ccc(C)c(CN2C(=O)c3ccccc3Sc3ccc(C(=O)NCc4ccc5c(c4)OCO5)cc32)c1 -17.8%, CN(C)c1ccc(C(=O)c2ccccc2)cc1 -7.21%
